From publication PMC9189065 (Cell, 2022)

Target: mouse ZNG1, full length, tag-free (mouse, UniProt Q8VEH6)
Assay: SEC

UniProt Q8VEH6, sequence (Q8VEH6 whole entry): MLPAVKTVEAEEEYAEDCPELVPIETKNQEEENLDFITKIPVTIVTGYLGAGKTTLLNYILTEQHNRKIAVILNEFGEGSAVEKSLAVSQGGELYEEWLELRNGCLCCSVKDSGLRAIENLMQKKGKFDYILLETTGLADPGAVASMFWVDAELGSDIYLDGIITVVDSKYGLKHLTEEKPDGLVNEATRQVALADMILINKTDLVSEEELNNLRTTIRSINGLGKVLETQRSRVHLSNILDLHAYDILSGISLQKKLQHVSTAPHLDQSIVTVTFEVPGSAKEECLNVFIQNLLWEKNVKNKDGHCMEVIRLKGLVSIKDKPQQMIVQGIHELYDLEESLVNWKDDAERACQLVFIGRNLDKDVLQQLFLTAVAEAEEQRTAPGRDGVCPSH

B1: mouse METAP1([…]) (domain or fragment)
chain: not shown
binding result: binds
